Whole data set: some 33,000 sequences, median “E-score (-0.5 to 0.5)” near -0.016, cut for the highest 2% near 0.32. The list shows a part of the results.
The sequences below were run against T1, Stp1 (UniProt B3LFK1) (assay: PBM E-score (8-mer binding enrichment) (E-score (-0.5 to 0.5)); higher = stronger / more preferred TF binding; most listed sequences are background and not binding sites). Conditions: protein concentration: 200 nM; construct: GST-full length.
T1 sequence: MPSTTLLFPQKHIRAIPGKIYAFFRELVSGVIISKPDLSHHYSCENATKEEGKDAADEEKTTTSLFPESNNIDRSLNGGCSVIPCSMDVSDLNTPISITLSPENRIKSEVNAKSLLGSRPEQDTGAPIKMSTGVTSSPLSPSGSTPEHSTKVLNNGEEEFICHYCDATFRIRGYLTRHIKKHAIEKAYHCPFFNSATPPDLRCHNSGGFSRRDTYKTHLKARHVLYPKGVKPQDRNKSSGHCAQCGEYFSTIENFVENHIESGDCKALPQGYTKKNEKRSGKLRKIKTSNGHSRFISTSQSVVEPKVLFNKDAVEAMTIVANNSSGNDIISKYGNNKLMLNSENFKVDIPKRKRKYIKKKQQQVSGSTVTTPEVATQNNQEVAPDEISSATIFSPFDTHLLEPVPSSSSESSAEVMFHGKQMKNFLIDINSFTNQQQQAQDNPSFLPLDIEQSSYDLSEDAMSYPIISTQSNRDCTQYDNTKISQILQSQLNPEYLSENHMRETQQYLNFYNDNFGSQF
Summary of the method: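 Universal all-10-mer Agilent arrays, double-stranded by primer extension on fresh or once-stripped slides, were probed with about 100-200 nM GST-tagged yeast transcription factors made by PURExpress. Fluorescent anti-GST detected bound protein, and masliner normalised the scans. E-scores from the Universal PBM Analysis Suite were given to each ungapped eight-base word pooled with its reverse complement.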

Compared with GGAGAAGA, AAGTCCCT is lower in “PBM E-score” value: -0.154 for the first, -0.363 for the second.

Going from GTGAGGCA to CTAAGGAA, the “PBM E-score” value falls from 0.367 to 0.066.

Going from CCCCCTCC to ACACATGG, the “PBM E-score” value rises from -0.379 to -0.0182.

First: ACCATATG
Second: TAGCCCCA
The “PBM E-score” value of the first is lower: -0.215 for the first, -0.116 for the second.

Going from AGGTCCAG to CAGAAGAC, the “PBM E-score” value rises from -0.106 to -0.082.

First: CGCGTGCC
Second: AAACTCGA
The “PBM E-score” value of the first is higher: 0.325 for the first, -0.0615 for the second.

First: CTGCTCGA
Second: CCTGAGTC
The “PBM E-score” value of the first is higher: -0.171 for the first, -0.227 for the second.

First: GAGAACGC
Second: ATGTGCCC
The “PBM E-score” value of the first is lower: -0.0745 for the first, 0.0678 for the second.

First: GTAATGAA
Second: AAACCATT
The “PBM E-score” value of the first is higher: 0.109 for the first, -0.0453 for the second.

Going from CATTACTC to AGGAGCAG, the “PBM E-score” value falls from 0.0185 to -0.147.

First: GCTTAAAC
Second: CCGCATAG
The “PBM E-score” value of the first is lower: 0.00392 for the first, 0.287 for the second.

Compared with CTCGCCAA, ATTTGGTG is higher in “PBM E-score” value: 0.0165 for the first, 0.0917 for the second.

Compared with ATCACCGG, ATTCCGTA is higher in “PBM E-score” value: -0.0553 for the first, 0.106 for the second.

Compared with ACCATGTA, CTATGGTA is lower in “PBM E-score” value: 0.0348 for the first, -0.0844 for the second.

Compared with ACAATATC, CGGTCGGA is lower in “PBM E-score” value: 0.0596 for the first, -0.0604 for the second.

First: ACAGTTAC
Second: AACCACGC
The “PBM E-score” value of the first is lower: -0.0301 for the first, 0.144 for the second.

First: AACCAAGC
Second: ATGCTGTC
The “PBM E-score” value of the first is higher: -0.0107 for the first, -0.129 for the second.

Going from ATGCGTGA to GATTGTCC, the “PBM E-score” value falls from -0.0753 to -0.0756.

First: GCTCACGA
Second: CCGCCGGA
The “PBM E-score” value of the first is lower: -0.0268 for the first, 0.0267 for the second.

First: CGTAGACC
Second: TAAAGGAA
The “PBM E-score” value of the first is lower: -0.193 for the first, -0.0551 for the second.

Compared with AGTGCGTC, CGCGTACA is higher in “PBM E-score” value: -0.24 for the first, 0.132 for the second.

Compared with GACCATAA, ACAGGTGG is lower in “PBM E-score” value: 0.0286 for the first, -0.0148 for the second.

First: CGCCCACA
Second: ATAAGCCA
The “PBM E-score” value of the first is higher: 0.112 for the first, -0.0425 for the second.

Going from ATAGGGCG to AGCGTTCG, the “PBM E-score” value falls from 0.282 to -0.0788.

First: GATAATCC
Second: AGTATAGC
The “PBM E-score” value of the first is lower: -0.175 for the first, -0.0636 for the second.

Going from AGAGCTGC to CTATTGAC, the “PBM E-score” value rises from -0.17 to -0.106.

Compared with CGTAAGAA, AAGGTAGC is lower in “PBM E-score” value: 0.0238 for the first, -0.167 for the second.

Compared with CCTGCACG, ATGCTACA is higher in “PBM E-score” value: -0.064 for the first, 0.0251 for the second.

Compared with GTGCGCAA, ACCTTTGG is lower in “PBM E-score” value: -0.0196 for the first, -0.175 for the second.

Going from GAGTTAGC to AGGGGACT, the “PBM E-score” value falls from 0.0268 to -0.197.

Compared with ACTAACGA, CGTCGTGA is lower in “PBM E-score” value: 0.0942 for the first, -0.24 for the second.

Going from GCCCCGCC to CCTTCATA, the “PBM E-score” value falls from 0.207 to -0.00266.

Compared with AGTAAACA, CAAGAAGC is higher in “PBM E-score” value: 0.111 for the first, 0.199 for the second.

First: AGGCCTCA
Second: GTCGTCTA
The “PBM E-score” value of the first is lower: -0.143 for the first, -0.0445 for the second.

First: GCAACTAA
Second: CGTTTCGC
The “PBM E-score” value of the first is higher: 0.263 for the first, 0.0321 for the second.

First: TCCCTCGA
Second: CGAACGCG
The “PBM E-score” value of the first is lower: -0.196 for the first, 0.103 for the second.

Going from GGAGGGAC to CAGGACTG, the “PBM E-score” value rises from -0.227 to -0.107.

Going from ATCGCCCC to CTTACTAC, the “PBM E-score” value rises from -0.0316 to -0.0212.

Compared with CCACTCAG, CTTACAGC is higher in “PBM E-score” value: -0.108 for the first, 0.0767 for the second.

Compared with CAACGGAG, CCCCGGAC is lower in “PBM E-score” value: -0.0687 for the first, -0.161 for the second.

First: CACCCGGA
Second: CCGACGTA
The “PBM E-score” value of the first is higher: -0.0499 for the first, -0.12 for the second.

Compared with CCTCCTAC, GTACTAAA is higher in “PBM E-score” value: -0.131 for the first, 0.0769 for the second.

First: GTCTCCAA
Second: CGATAGAC
The “PBM E-score” value of the first is lower: -0.0244 for the first, 0.00428 for the second.

First: ACTAGTGC
Second: ACACTAAC
The “PBM E-score” value of the first is higher: 0.173 for the first, 0.0905 for the second.

First: CACACCCA
Second: ATTTTTGG
The “PBM E-score” value of the first is lower: -0.101 for the first, 0.117 for the second.

Compared with AGCAATCA, AGCCCGCC is higher in “PBM E-score” value: -0.0553 for the first, -0.0384 for the second.

First: GAACGCTC
Second: CTACGTTC
The “PBM E-score” value of the first is lower: -0.17 for the first, -0.141 for the second.
